From PubChem BioAssay AID686979 (National Center for Advancing Translational Sciences (NCATS), 2013)
Several values for one entry are separate records, joined by “and”; a condition that tells them apart may be missing. Equal entries are not always repeated. In all, about 420,000 compounds went through this assay and about 50,000 (12%) were called active. Inconclusive means that the source gave no clear call. Such entries were picked first, then a sample of the others. Calls come from the whole dose curve; as a rule, active = well fitted inhibition curve with a large enough effect; inconclusive = small, poorly fitted or top-dose-only effect; inactive = flat fitted curve, though single readings scatter. Potencies of inconclusive entries are left out as doubtful fits.
% is set by controls: 0 for no effect and ±100 for the full control effect; potency is the fitted concentration of half-maximal effect; tags give direction and shape of the fitted curve.

Experiment: qHTS for Inhibitors of human tyrosyl-DNA phosphodiesterase 1 (TDP1): qHTS in cells in presence of CPT; note: nearly all actives have a fitted effect of over 55% in size
Details: chicken DT40 Tdp1-/-;hTDP1 cells + 20 nM CPT, ATP luminescence, 48 h; activity change, negative = growth inhibition: at 46.2 µM (top of the series)
Outline: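 Cell growth measured by CellTiter-Glo luminescence after a minimum 48 h, 37 C compound exposure with 20 nM CPT in Tdp1-knockout DT40 cells stably expressing hTDP1, seeded 400/well; qHTS titration format.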
For `COc1ccc(CCSc2nnc(C3CCCCC3)n2N)cc1`, the Potency was inconclusive [inhibitor, single point]. In the case of `COc1ccc(CNC(=O)C[C@H]2C(=O)N(CCc3ccccc3)C[C@@H]2Cc2ccccc2)cc1`, the Potency is reported as active: 10 µM and active: 16.4 µM. In the case of `Cc1ccc(-c2cc(C(=O)NCCc3ccccc3)c3c(-c4ccc(C)cc4)[nH]nc3n2)cc1`, the Potency is reported as inconclusive [inhibitor, single point]. For `CN(C)c1ccc(-c2nc(N(C)C)c3ccccc3n2)cc1`, the Potency was inconclusive [inhibitor, single point]. For `O=C1c2cccc3c([N+](=O)[O-])c(O)cc(c23)C(=O)N1Nc1ccccc1`, the Potency was inconclusive [inhibitor, single point]. With `O=C(Nc1ccccc1)c1cc2ccccc2o1` the Potency was “inactive”. In the case of `CC(=O)N1CC(c2ccccc2)C(c2ccc(Cl)cc2)=N1` (centres undefined), the Potency is reported as inconclusive [inhibitor, single point]. With `CCn1cc(C(=O)N2CCN(c3cc(C)ccc3C)CC2)c(=O)c2cc(S(=O)(=O)N(C)C3CCCCC3)ccc21` the Potency was inconclusive [inhibitor, single point]. For `CCS(=O)(=O)c1ccc2oc(SCC(=O)Nc3ccc(OC)cc3)nc2c1`, the Potency was “inactive”. For `COc1ccc(-c2ccc3c(N)c(C(=O)Nc4cc(F)ccc4C)sc3n2)cc1`, the Potency was inconclusive [inhibitor, single point]. With `O=C(NC(=S)NCc1ccccc1)c1ccccc1Br` the Potency was “inactive”. In the case of `O=C(c1cccnc1Cl)N(Cc1ccccc1)Cc1ccccc1`, the Potency is reported as inconclusive [inhibitor, partial curve]. In the case of `CCCCN(C)CCNC(=O)c1cc2c(-c3cccc(OC)c3)nn(C)c2s1`, the Potency is reported as inconclusive [inhibitor, single point]. With `CCCCN1CCc2nc(N3CCN(c4ncccn4)CC3)ncc2C1` the Potency was inconclusive [inhibitor, single point]. In the case of `O=C(NCCN1Cc2ccccc2OC(c2ccccc2F)C1)c1cncs1` (centres undefined), the activity change, negative = growth inhibition is reported as inactive: -2.43% [at 9.04 µM]. With `O=C(COc1ccc2c3c(c(=O)oc2c1)CCC3)Nc1ccc(CN2CCOCC2)cc1` the Potency was inconclusive [inhibitor, single point]. In the case of `O=S1(=O)N[C@@H](Cc2ccccc2)COc2cccc(N3CCSCC3)c21`, the Potency is reported as “inactive”. In the case of `COc1ccc(N2CCN(CCCNC(=O)C3CCN(S(=O)(=O)N4CCOCC4)CC3)CC2)cc1`, the Potency is reported as “inactive”. For `Cc1ccc(NC(=O)CSc2nc3c([nH]c4ccccc43)c(=O)n2-c2ccccc2)c(C)c1`, the Potency was inconclusive [inhibitor, partial curve].
